Laboratory results published in the BET-seq Pho4 binding data (Le et al. 2018).
This is one part of the list. These are noisy estimates, calculated here from bound and input reads.

target: T1, Pho4 (S. cerevisiae) (UniProt P07270); experiment: relative binding free energy (BET-seq); higher = weaker binding; conditions: reference: library average
T1 sequence: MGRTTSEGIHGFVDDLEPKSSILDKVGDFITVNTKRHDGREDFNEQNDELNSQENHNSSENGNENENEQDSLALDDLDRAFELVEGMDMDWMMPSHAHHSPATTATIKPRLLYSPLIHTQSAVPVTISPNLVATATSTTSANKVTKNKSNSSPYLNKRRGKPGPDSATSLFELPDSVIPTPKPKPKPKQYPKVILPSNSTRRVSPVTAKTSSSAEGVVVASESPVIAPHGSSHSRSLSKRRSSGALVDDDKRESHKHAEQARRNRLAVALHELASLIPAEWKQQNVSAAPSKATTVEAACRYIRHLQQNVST

Sequence | relative binding free energy
GGGGCCACGTGGTTGT | -0.08 kcal/mol
TATAGCACGTGCCGGG | -0.2 kcal/mol
TAAGTCACGTGTAGGG | 0.08 kcal/mol
GTTGGCACGTGATACG | -0.06 kcal/mol
GGGTTCACGTGCGGCT | 0.36 kcal/mol
TCTGTCACGTGGGTAG | -0.09 kcal/mol
GTTGGCACGTGCGCGG | -0.14 kcal/mol
GTTATCACGTGTCGGG | 0.12 kcal/mol
GAGTACACGTGTGTGG | 0.12 kcal/mol
CGGGGCACGTGGGAAT | -0.14 kcal/mol
TTGGTCACGTGACCGT | 0.15 kcal/mol
TGTCACACGTGTGAGA | 0.23 kcal/mol
GTTGTCACGTGTCGGC | 0.11 kcal/mol
TGTAACACGTGCCGGT | -0.04 kcal/mol
ATAGTCACGTGTGGAC | 0.21 kcal/mol
GGTAGCACGTGGTCGT | -0.19 kcal/mol
TTTGCCACGTGGGGAA | -0.16 kcal/mol
TGGTACACGTGGACGT | 0.15 kcal/mol
AGGGGCACGTGCCTGT | -0.25 kcal/mol
GTTTGCACGTGATTCT | 0.15 kcal/mol
GGGCTCACGTGTGTCG | 0.22 kcal/mol
TTTTTCACGTGTTGTG | 0.27 kcal/mol
CGTTGCACGTGTGCGT | -0.02 kcal/mol
TTTGTCACGTGATAGT | 0.25 kcal/mol
TGGGTCACGTGAATGG | 0.45 kcal/mol
ATGTGCACGTGGACTT | -0.11 kcal/mol

Sequence | relative binding free energy
CATCGCACGTGTGGGG | 0.05 kcal/mol
GCTGCCACGTGTGGTA | 0.13 kcal/mol
TAGGGCACGTGTGTAA | -0.15 kcal/mol
GGAGGCACGTGAATAG | 0.09 kcal/mol
ATATGCACGTGAGGCT | 0.12 kcal/mol
GAGGTCACGTGTAAAG | 0.35 kcal/mol
TGCGTCACGTGAGTGA | 0.13 kcal/mol
GCGGTCACGTGTTGTT | 0.13 kcal/mol
CTGGTCACGTGAGGGA | 0.2 kcal/mol
GAGTGCACGTGATATG | 0.21 kcal/mol
TGGTGCACGTGAGGAG | 0.23 kcal/mol
CTTTACACGTGGATGA | 0.13 kcal/mol
TAGAGCACGTGTGGTA | -0.05 kcal/mol
GGTCGCACGTGGTGTC | -0.06 kcal/mol
TTCTGCACGTGGCAGG | 0.09 kcal/mol
TGGGTCACGTGACGTG | 0.21 kcal/mol
ATGGACACGTGAGTTT | 0.36 kcal/mol
AAGGGCACGTGGTAAA | -0.18 kcal/mol
GGGGCCACGTGGTTAA | -0.1 kcal/mol
GTTAACACGTGGGTGC | -0.1 kcal/mol
TGACGCACGTGGGAAG | -0.1 kcal/mol
GACGTCACGTGTGAGT | 0.3 kcal/mol
AGGCGCACGTGGGTGG | -0.26 kcal/mol
GGAGTCACGTGGGGTT | 0 kcal/mol
TTTTGCACGTGGGCGG | -0.13 kcal/mol
CGAGGCACGTGGCGTG | -0.25 kcal/mol

Sequence | relative binding free energy
GCAAGCACGTGCGTGG | -0.19 kcal/mol
AGTTTCACGTGACTTA | 0.3 kcal/mol
GTAGCCACGTGATGTT | 0.11 kcal/mol
CACGGCACGTGAGGGT | 0.24 kcal/mol
TTTACCACGTGGGGTT | -0.11 kcal/mol
GGATGCACGTGAGAGT | 0.33 kcal/mol
GGGTGCACGTGTAAGT | 0.08 kcal/mol
GTTGTCACGTGCTGTC | 0.13 kcal/mol
TGATTCACGTGGCTAT | 0.31 kcal/mol
GCGGTCACGTGAAGGG | 0.34 kcal/mol
AGCAGCACGTGGGGTT | -0.27 kcal/mol
TTAGGCACGTGTTGCG | -0.23 kcal/mol
AGAGGCACGTGGGTAT | -0.28 kcal/mol
AGAGGCACGTGGATGG | -0.18 kcal/mol
TAGGGCACGTGAGCTG | 0.06 kcal/mol
GGTTACACGTGGCGAG | 0.15 kcal/mol
ATGGGCACGTGTTTGT | -0.17 kcal/mol
CGGTGCACGTGGTATA | -0.24 kcal/mol
TTTCTCACGTGATGGG | 0.33 kcal/mol
GTGGTCACGTGTTAGT | 0.1 kcal/mol
TAGCGCACGTGGGTCG | -0.27 kcal/mol
GTGTCCACGTGTAGGT | 0.15 kcal/mol
AGAGCCACGTGAGGGG | 0.14 kcal/mol
TAGAGCACGTGAATTG | 0.2 kcal/mol
GTTTGCACGTGACCGT | 0.21 kcal/mol
TGAGTCACGTGGTAGT | -0.07 kcal/mol

Sequence | relative binding free energy
GCTGACACGTGTTTTT | 0.03 kcal/mol
TTGAACACGTGTTGTT | 0.03 kcal/mol
GTGGGCACGTGACGTT | 0.09 kcal/mol
AAGTGCACGTGGACGT | -0.05 kcal/mol
ACTTACACGTGGGGGT | 0.07 kcal/mol
CAGTTCACGTGGAGGA | 0.28 kcal/mol
TATCACACGTGCGGTG | 0.14 kcal/mol
GTTTACACGTGGTCTA | 0.08 kcal/mol
GTGCACACGTGCGTGT | -0.06 kcal/mol
TAGGGCACGTGGTGCG | -0.21 kcal/mol
GGATGCACGTGGTGTA | -0.15 kcal/mol
TTGGTCACGTGGCTTG | 0.07 kcal/mol
TGGTGCACGTGTACTA | -0.11 kcal/mol
ATAAACACGTGTGGAT | 0 kcal/mol
GGGAGCACGTGGGATC | -0.05 kcal/mol
GTCTTCACGTGTGGGG | 0.26 kcal/mol
TGAGGCACGTGCGGGT | -0.19 kcal/mol
TGCTTCACGTGGAGTG | 0.18 kcal/mol
TGTCGCACGTGGAGAT | 0.01 kcal/mol
GGCGGCACGTGCGTGG | -0.15 kcal/mol
AGATGCACGTGGGTAT | -0.19 kcal/mol
ATTTTCACGTGCTTGA | 0.28 kcal/mol
AGAGTCACGTGGAGAG | 0.2 kcal/mol
TGTGGCACGTGTTATT | -0.08 kcal/mol
TTAGGCACGTGTGATA | 0.02 kcal/mol
TCGGTCACGTGATATG | 0.15 kcal/mol

Sequence | relative binding free energy
GATGTCACGTGTGAGC | 0.2 kcal/mol
GCTTGCACGTGTGAGG | -0.02 kcal/mol
GTTGTCACGTGTGATG | 0.24 kcal/mol
TAGGACACGTGAGGGA | 0.25 kcal/mol
ACGTTCACGTGGTGTT | 0.07 kcal/mol
TCGTTCACGTGGTCGG | 0.26 kcal/mol
TGGTTCACGTGGTGAG | 0.36 kcal/mol
AGTTTCACGTGAGTTC | 0.37 kcal/mol
GTTCACACGTGTGCTG | 0.17 kcal/mol
TGAGTCACGTGGTTGG | 0.07 kcal/mol
TGGGACACGTGAAGTT | 0.3 kcal/mol
GCTTCCACGTGTGGGG | 0.06 kcal/mol
CTTGTCACGTGCTGGA | 0.16 kcal/mol
TATGCCACGTGGAAGT | -0.03 kcal/mol
GCGCCCACGTGTGGGG | -0.06 kcal/mol
GGAGGCACGTGTTTGT | -0.13 kcal/mol
TTGGTCACGTGTTCCT | 0.18 kcal/mol
AGTTGCACGTGTTCTA | 0.09 kcal/mol
TTGTACACGTGTAGAT | 0.09 kcal/mol
GGTTACACGTGGCGGG | 0.03 kcal/mol
ATGTACACGTGGAGTG | -0.02 kcal/mol
TGTCACACGTGTTGGT | 0.04 kcal/mol
TTTGGCACGTGGTTGG | -0.07 kcal/mol
AGTCACACGTGTTGCG | 0.12 kcal/mol
GAGTGCACGTGGATGC | -0.01 kcal/mol
GTTTGCACGTGAGTGT | 0.28 kcal/mol

Sequence | relative binding free energy
TAGTTCACGTGTTAAA | 0.27 kcal/mol
AGTTACACGTGTATGG | 0.06 kcal/mol
ATTAACACGTGTAGGG | -0.04 kcal/mol
GTGCTCACGTGTGGAG | 0.27 kcal/mol
ATGTTCACGTGGAGTG | 0.19 kcal/mol
GGCGGCACGTGAGGTT | 0.24 kcal/mol
TTCGTCACGTGGGCTT | -0.1 kcal/mol
TGTTGCACGTGTCATT | 0.06 kcal/mol
ATAGCCACGTGGGGGG | -0.34 kcal/mol
AGGAGCACGTGCGGGG | -0.21 kcal/mol
TAGAACACGTGTATTT | 0.15 kcal/mol
AGTGGCACGTGGGAAT | -0.21 kcal/mol
TGGAACACGTGGGGCA | -0.16 kcal/mol
GCGTACACGTGTTTGG | 0.1 kcal/mol
TTTATCACGTGGGCGA | -0.08 kcal/mol
AAGTACACGTGGTGTT | 0.05 kcal/mol
TAGGTCACGTGTCTAT | -0.02 kcal/mol
GGATGCACGTGTGGAA | 0.07 kcal/mol
AACTGCACGTGGTATT | 0.05 kcal/mol
TCGGACACGTGTGAGA | 0.23 kcal/mol
AATTGCACGTGGTATA | -0.09 kcal/mol
GGGTGCACGTGGTATG | -0.08 kcal/mol
ATTTGCACGTGAATAT | 0.31 kcal/mol
TGAATCACGTGGAATT | 0.2 kcal/mol
GTGGACACGTGTCGGG | 0.11 kcal/mol
GGTGTCACGTGCAAGT | 0.01 kcal/mol

Sequence | relative binding free energy
ATTAGCACGTGTTTAA | -0.08 kcal/mol
CTTTGCACGTGTTGGC | 0.12 kcal/mol
GGGTGCACGTGGGAGA | 0.02 kcal/mol
ACGGCCACGTGTGGTT | 0.09 kcal/mol
ATTTTCACGTGGTGCA | 0.38 kcal/mol
TTAGTCACGTGAGAAG | 0.38 kcal/mol
TTATGCACGTGCGATT | -0.08 kcal/mol
TGAAACACGTGATGGT | 0.16 kcal/mol
TGTATCACGTGTTATC | 0.08 kcal/mol
TCAGTCACGTGGTTTT | 0.11 kcal/mol
ATTGTCACGTGGCAGG | 0.06 kcal/mol
GGTAGCACGTGCGGGC | -0.14 kcal/mol
AGGGTCACGTGAATTT | 0.32 kcal/mol
TTCGTCACGTGTAATA | 0.12 kcal/mol
TGGCCCACGTGGTGGG | -0.07 kcal/mol
TGATTCACGTGAGGCT | 0.4 kcal/mol
AAATGCACGTGTTGGT | 0.03 kcal/mol
CGCAACACGTGGGGGG | -0.14 kcal/mol
GGTGGCACGTGAGTGA | 0.24 kcal/mol
CTCTACACGTGTGGTT | 0.1 kcal/mol
ATGGGCACGTGGAGGT | -0.08 kcal/mol
GTGGTCACGTGTTGCA | 0.13 kcal/mol
CATTACACGTGTTATT | 0.1 kcal/mol
ATGTGCACGTGTTGAT | 0.01 kcal/mol
GTTTACACGTGTCTTT | 0.19 kcal/mol
TTGTACACGTGTGTGA | 0.01 kcal/mol

Sequence | relative binding free energy
ATCTACACGTGTTTTT | 0.08 kcal/mol
TGGGACACGTGAAAAG | 0.23 kcal/mol
GTAGTCACGTGAGTAT | 0.31 kcal/mol
GGTATCACGTGTGTAC | 0.36 kcal/mol
GAGGTCACGTGTGTCA | 0.26 kcal/mol
TTTCGCACGTGGCGGT | -0.09 kcal/mol
GTGATCACGTGCGGAG | -0.03 kcal/mol
TCGTTCACGTGGTTTT | 0.28 kcal/mol
CTTCTCACGTGGTGTT | 0.15 kcal/mol
CTTTTCACGTGCAGGT | 0.27 kcal/mol
GTGTTCACGTGTCTTT | 0.25 kcal/mol
GGTGGCACGTGTCATT | 0.01 kcal/mol
TTTCACACGTGGGCTG | 0.02 kcal/mol
TAGGCCACGTGATGGA | -0.01 kcal/mol
TTGAACACGTGAGGAT | 0.35 kcal/mol
AAAGGCACGTGGGTGA | -0.28 kcal/mol
AGTTGCACGTGAAGTA | 0.28 kcal/mol
GGTAACACGTGTTAGT | 0.07 kcal/mol
CGGGTCACGTGGCATG | 0.03 kcal/mol
AGGGTCACGTGATTCA | 0.25 kcal/mol
TTTTACACGTGGAGGT | 0.13 kcal/mol
TGCATCACGTGATGGG | 0.34 kcal/mol
TTTATCACGTGCAATG | 0.21 kcal/mol
GCTGGCACGTGGGCTG | -0.14 kcal/mol
CAGGCCACGTGGGGGA | -0.32 kcal/mol
GTGCACACGTGTGTTG | 0.15 kcal/mol

Sequence | relative binding free energy
TATGGCACGTGTGCGG | -0.14 kcal/mol
ATTTGCACGTGAAGAT | 0.31 kcal/mol
ATTGACACGTGGCGGT | -0.11 kcal/mol
GTCGTCACGTGTATAG | 0.06 kcal/mol
TTAGACACGTGTGGTG | 0.09 kcal/mol
ATTGACACGTGCAGGT | -0.1 kcal/mol
GGACTCACGTGGGAGT | 0.12 kcal/mol
AGGTTCACGTGTTGTA | 0.26 kcal/mol
GGAGACACGTGGCTGG | -0.16 kcal/mol
ATTTTCACGTGGCCGT | 0.31 kcal/mol
GATAGCACGTGGTGTA | -0.21 kcal/mol
TCGTGCACGTGGAGGT | -0.01 kcal/mol
GTCGGCACGTGGGGCA | -0.04 kcal/mol
ATGTCCACGTGGGTTG | -0.11 kcal/mol
TTTATCACGTGGCTTA | 0.06 kcal/mol
CGGAGCACGTGTCAGG | -0.09 kcal/mol
GGAAGCACGTGTAGAA | 0.11 kcal/mol
GTGATCACGTGATGAG | 0.1 kcal/mol
AAGTTCACGTGTTTTT | 0.32 kcal/mol
TCTGTCACGTGTATCT | 0.13 kcal/mol
TATGTCACGTGGATTA | 0.16 kcal/mol
TAGGTCACGTGAGTCG | 0.42 kcal/mol
